From PubChem BioAssay AID602310 (National Center for Advancing Translational Sciences (NCATS), 2012)
About 310 (0.076%) of roughly 410,000 compounds were called active. This list was built around the results that the source calls inconclusive (neither active nor inactive); the mix of calls is not that of the screen. The call rests on the fitted dose curve; in most records, active means well fitted curve in the direction sought with a large enough effect; inconclusive means small, poorly fitted or top-dose-only effect; inactive means flat fitted curve, though single readings scatter. Potencies beside an inconclusive call are fits to weak or partial responses and may not hold up.

What follows are compounds tested against DNA dC->dU-editing enzyme APOBEC-3G (Homo sapiens) (UniProt Q9HC16) (assay: qHTS for Inhibitors of Vif-A3G Interactions: qHTS). Settings: HeLa A3G-eYFP + Vif (tagged APOBEC3G with the HIV-1 protein that degrades it), YFP fluorescence, overnight; series mostly up to 46.1 µM; activity, negative = active: at the top concentration.
UniProt Q9HC16, sequence (Q9HC16 whole entry, looked up): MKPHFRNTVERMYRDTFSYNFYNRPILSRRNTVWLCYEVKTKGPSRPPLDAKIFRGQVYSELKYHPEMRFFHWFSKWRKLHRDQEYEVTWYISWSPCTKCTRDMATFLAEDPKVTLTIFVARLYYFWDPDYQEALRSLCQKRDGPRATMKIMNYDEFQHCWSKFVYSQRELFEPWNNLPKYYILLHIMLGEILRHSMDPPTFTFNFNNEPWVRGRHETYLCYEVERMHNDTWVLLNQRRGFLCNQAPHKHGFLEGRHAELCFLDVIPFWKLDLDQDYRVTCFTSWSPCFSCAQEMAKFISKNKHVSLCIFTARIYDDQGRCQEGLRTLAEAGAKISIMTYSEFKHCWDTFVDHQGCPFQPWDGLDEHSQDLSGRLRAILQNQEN
Procedure, shortened: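 HeLa cells stably expressing Vif and C-terminally eYFP-tagged A3G, seeded overnight at 37 deg C, then exposed to compound by pintool overnight at 37 deg C. Rise in yellow fluorescence (Ex 488/Em 500-530, Acumen) marks blocked Vif-driven A3G degradation.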
Further: nearly all actives have a fitted effect of over 60% in size.
On the % scale 0 is the no-effect control and ±100 the full control effect; potency means the concentration at half of the fitted maximal effect; tags describe the fitted curve by direction and shape.
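Wherever activity, negative = active is given: hits raise eYFP signal because A3G escapes Vif-driven loss.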

Row | SMILES | Potency | activity, negative = active
1 | CN(C)c1ccc(/C=C/c2ccccn2)cc1 | inconclusive: 25.1 µM [inhibitor, single point] | –
2 | O=C(CCc1c[nH]c2ccccc12)NCc1ccncc1 | – | inactive: -4.09%
3 | Cn1c(=O)cc(NCCc2ccccc2)[nH]c1=O | inconclusive: 20 µM [inhibitor, partial curve, poor fit] | –
4 | Cc1ccc2nc(SCC(=O)Nc3ccc(F)c([N+](=O)[O-])c3)[nH]c2c1 | inconclusive: 35.5 µM [inhibitor, single point] | –
5 | COc1ccc(OCC(=O)NNC(=S)NC(=O)c2ccc([N+](=O)[O-])cc2)cc1 | – | inactive: 3.88%
6 | COc1ccc(OC)c(CNc2ncnc3onc(-c4ccc(Cl)cc4)c23)c1 | inconclusive: 2.51 µM [inhibitor, full curve, poor fit] | –
7 | COc1ccccc1Nc1ccc([N+](=O)[O-])cc1N | inconclusive: 12.6 µM [inhibitor, single point] | –
8 | CN(C)c1ccc(/C=C2\Oc3ccc(C#Cc4cccc(N)c4)cc3C2=O)cc1 | inconclusive: 7.08 µM [inhibitor, partial curve] | –
9 | COc1ccc(CSC(=N)N)cc1[N+](=O)[O-] | inconclusive: 35.5 µM [inhibitor, single point] | –
10 | C=C1[C@@H](O)[C@H](CC(C)C)N(Cc2ccccc2Br)S1(=O)=O | inconclusive: 6.31 µM [inhibitor, full curve] | –
11 | C=CCOC(=O)C1=C[C@@H](c2ccccc2)[C@H](CCCO)[C@@H](OCC)O1 | inconclusive: 28.2 µM [inhibitor, single point] | –
12 | COc1cccc2cc(-c3nc4sc(C(=O)Nc5ccc(F)cc5F)c(C)c4c(=O)[nH]3)c(=O)oc12 | inconclusive: 28.2 µM [inhibitor, single point] | –
13 | O=C(NCc1ccncc1)C1Cc2c(-c3ccc(Cl)cc3)ccnc2O1 (stereo not drawn) | inconclusive: 28.2 µM [inhibitor, single point] | –
14 | COc1cccc(CNc2ncnc3onc(-c4ccc(F)cc4)c23)c1 | – | inactive: -3.77%
15 | COc1ccc(CCCNC(=O)C2Cc3c(-c4ccc5c(c4)OCO5)ccnc3O2)cc1 (stereo not drawn) | inconclusive: 2.82 µM [inhibitor, full curve, poor fit] | –
16 | O=C(Nc1ccc(N2CCN(C(=O)c3cccs3)CC2)cc1)c1cccc(F)c1 | inconclusive: 7.94 µM [inhibitor, partial curve] | –
17 | Nc1nc(=S)c2[nH]cnc2[nH]1 | – | inactive: -34.2%
18 | CC(CNC(=O)Cn1ncc2c3ccccc3n(Cc3cccc(Cl)c3)c2c1=O)c1ccccc1 (stereo not drawn) | – | inactive: -4.22%
19 | COc1ccc(-c2noc(C3CC(=O)N(c4ccc(C)c(F)c4)C3)n2)c(OC)c1 (stereo not drawn) | – | inactive: 0.395%
20 | CN1/C(=C\C(=O)c2ccco2)C(C)(C)c2ccccc21 | inconclusive: 15.8 µM [inhibitor, single point] | –
21 | CCOC(=O)C1=C(COC(=O)c2ccc([N+](=O)[O-])o2)NC(=O)NC1C (stereo not drawn) | – | inactive: -8.78%
22 | CCOC(=O)c1ccc2cccc(C)n2c1=O | – | inactive: 1.03%
23 | COc1ccc(C(=O)Nc2cccc(/C=C/c3nc4ccccc4c(=O)[nH]3)c2)cc1 | inconclusive: 12.6 µM [inhibitor, partial curve, poor fit] | –

Row | SMILES | Potency | activity, negative = active
24 | COc1ccc(C2C(C(=O)Nc3ccccc3)=C(C)Nc3nc(-c4ccccc4)nn32)cc1OC (stereo not drawn) | inconclusive: 11.2 µM [inhibitor, single point] | –
25 | O=C1CC(c2ccccc2)Cc2[nH]c(=O)c(-c3nc(-c4cccc(Cl)c4)cs3)cc21 (stereo not drawn) | inconclusive: 2.51 µM [inhibitor, full curve, poor fit] | –
26 | O=C(NCCCC1CCCC1)C1CCC(=O)N(Cc2ccccc2F)C1 (stereo not drawn) | – | inactive: 0.255%
27 | C=C(C)Cn1c(=O)c2c(nc3n2CCCN3CCc2ccccc2)n(C)c1=O | – | inactive: -1.69%
28 | CCc1ccccc1OCC(=O)Nc1ccc(N2CCCC2)cc1C | inconclusive: 14.1 µM [inhibitor, single point] | –
29 | CC(=O)Nc1cccc(-c2ccnc3c2CC(C)(C(=O)NCc2ccc(N(C)C)cc2)O3)c1 (stereo not drawn) | inconclusive: 3.16 µM [inhibitor, full curve, poor fit] | –
30 | Cc1nn(C)c(C)c1/C=C(/C(=O)C(C)(C)C)n1cncn1 | inconclusive: 22.4 µM [inhibitor, single point] | –
31 | CCc1cnc(Nc2nc(C(N)Cc3ccc(Cl)cc3)cs2)nc1 (stereo not drawn) | – | inactive: 1.28%
32 | CC(C)(C)C(=O)/C(=C/c1ccc(Cl)cc1)n1cncn1 | inconclusive: 11.2 µM [inhibitor, partial curve] | –
33 | Cc1ccc(C(=O)N/C(=C\c2ccc(-c3ccc([N+](=O)[O-])cc3)o2)C(=O)NC2CCS(=O)(=O)C2)cc1 (stereo not drawn) | inconclusive: 22.4 µM [inhibitor, single point] | –
34 | Fc1ccccc1N1CCN(CC2CC3C=CC2C3)CC1 (stereo not drawn) | – | inactive: -0.196%
35 | O=C(NCCC1CCCCN1S(=O)(=O)c1cccs1)C(=O)Nc1ccc(F)cc1F (stereo not drawn) | inconclusive: 3.55 µM [inhibitor, full curve] | –
36 | O=C(CCl)N1c2ccccc2Oc2ccc3ccccc3c21 | inconclusive: 17.8 µM [inhibitor, partial curve, poor fit] | –
37 | CCN(CC)c1ccc2cc(-c3nnc(-c4cccc(Cl)c4)o3)c(=O)oc2c1 | inconclusive: 5.01 µM [inhibitor, partial curve, poor fit] | –
38 | CCn1c(N)c(C(=O)NCCCOC)sc1=S | – | inactive: 0.737%
39 | CC[C@@H](NCCCn1ccc(NC(=O)OCc2ccccc2)nc1=O)c1ccccc1 | – | inactive: -4.29%
40 | CN1C(=O)/C(=C/c2cccc(Cl)c2)Sc2ccc(C(=O)NCc3cccnc3)cc21 | – | inactive: -7.25%
41 | Oc1ccc(-c2csc(-c3cccnc3)n2)cc1O | inconclusive: 25.1 µM [inhibitor, single point] | –
42 | O=C1/C(=C/Nc2ccc3c(c2)OCO3)CCc2ccccc21 | inconclusive: 17.8 µM [inhibitor, single point] | –
43 | Cc1ncc(CO)c2c1Oc1nc(-c3ccccc3)nc(SCC(=O)Nc3cccc(O)c3)c1C2 | inconclusive: 35.5 µM [inhibitor, single point] | –
44 | C/C(CCc1ccc2c(c1)OCO2)=N\NC(=S)NC(C)C | – | inactive: 0.508%
45 | O=C(NC1CCCCC1)c1cccc2c1C(=O)c1ccc(N3CCCC3)cc1S2(=O)=O | – | inactive: -10.8%
46 | COc1cc(OC)c(/C=C/c2ccc3ccccc3n2)c(OC)c1 | inconclusive: 22.4 µM [inhibitor, single point] | –

Row | SMILES | Potency | activity, negative = active
47 | COc1ccc(OC)c(/C=C/C(=O)c2ccc3c(c2)OCCO3)c1 | inconclusive: 28.2 µM [inhibitor, single point] | –
48 | Cc1cc2ccccn2c1C(=O)c1ccc(NN)c([N+](=O)[O-])c1 | inconclusive: 12.6 µM [inhibitor, single point] | –
49 | O=C(N/N=C/c1cccc2ccccc12)c1n[nH]c2c1CCCC2 | inconclusive: 1.12 µM [inhibitor, full curve, poor fit] | –
50 | CC1(C)Cc2c(C#N)c(NCc3ccco3)nc(-c3ccco3)c2CO1 | – | inactive: -7.37%
51 | N#CC(C#N)=c1ccc2c(c1)NC1(CCCCC1)N=2 | inconclusive: 8.91 µM [inhibitor, partial curve, poor fit] | –
52 | COc1cc(C(=O)N/N=C/c2coc3ccccc3c2=O)cc(OC)c1OC | inconclusive: 35.5 µM [inhibitor, single point] | –
53 | CCCN(CCC)CC(O)Cn1cc(/C=C/C(=O)c2cccs2)c2ccccc21 (stereo not drawn) | inconclusive: 14.1 µM [inhibitor, single point] | –
54 | Cc1ccc(-c2c(C#N)c(N)nc3c2CCCC3)o1 | – | inactive: 3.03%
55 | CC(=O)NN1C(=O)/C(=C\c2ccc(Br)o2)SC1=S | inconclusive: 31.6 µM [inhibitor, single point] | –
56 | Cn1cnc([N+](=O)[O-])c1S(=O)(=O)c1cccc(Cl)c1 | inconclusive: 20 µM [inhibitor, single point] | –
57 | O=C1/C(=C\c2ccc3ccccc3c2)CCCc2ccccc21 | inconclusive: 2.51 µM [inhibitor, full curve, poor fit] | –
58 | Cn1nnnc1Sc1ncnc2scc(-c3ccc(C#N)cc3)c12 | inconclusive: 10 µM [inhibitor, partial curve, poor fit] | –
59 | CCNC(=S)N1CCN(c2ccccn2)CC1 | – | inactive: 0.97%
60 | CC(=O)Oc1ccc2nc(/C=C/c3ccccc3)oc(=O)c2c1 | – | inactive: -9.35%
61 | C=C1C(=O)O[C@H]2C[C@]3(C)C([C@@H](OC(=O)/C(C)=C/C)[C@H]12)[C@](C)(O)CC[C@H]3O (stereo partly drawn) | inconclusive: 25.1 µM [inhibitor, single point] | –
62 | COCCNC(=O)/C(C#N)=C/c1cccc(/C=C(\C#N)C(=O)NCCOC)c1 | inconclusive: 25.1 µM [inhibitor, single point] | –
63 | N#Cc1c(NC(=O)/C=C/C(=O)O)sc2c1CCN(Cc1ccccc1)C2 | inconclusive: 28.2 µM [inhibitor, single point] | –
64 | C#CCn1cc(/C=N/NC(=O)COc2cccc3cccnc23)c2ccccc21 | inconclusive: 25.1 µM [inhibitor, single point] | –
65 | Cc1cc(NC(=S)N(Cc2ccc(Br)cc2)Cc2ccc(C(=O)O)cc2)ccc1Cl | – | inactive: -3.35%
66 | COc1ccc(COc2cc(-c3cccc(OC)c3)nc3ccc(NC(=O)c4ccc(OC)cc4)cc23)cc1 | inconclusive: 3.55 µM [inhibitor, partial curve] | –
67 | COc1ccccc1Cc1c(C2CCCCC2)nc2ccc(C)cn12 | inconclusive: 35.5 µM [inhibitor, single point] | –
68 | Cc1ccc(C)c(-n2c3nc(=O)[nH]c(=O)c-3cc3cc([N+](=O)[O-])ccc32)c1 | inconclusive: 1.78 µM [inhibitor, full curve, poor fit] | –
